Test results published in PubChem BioAssay AID1814 (Broad Institute, 2009).
Screen size: about 300,000 compounds; about 22,000 (7.3%) were called active. Inconclusive results, whose numbers are uncertain, are shown with a selection of clear calls. No stated cut-off is given here; in the data, active means activity score below about -60%; inconclusive means mostly about -28% to -61%; inactive means positive scores.

Assay: Activators via SNCA 5'UTR binding, MLPCN (AID 1814)
Conditions: alpha-synuclein 5'UTR reporter, activators screen; active compounds read low; tested at 7.5 µM

Compound	activity score
Cc1ccc(-n2c(CCC(=O)O)ccc2-c2cccs2)cc1	inconclusive: -50.2%
O=C(c1ccccc1)c1cnc(Nc2ccc(Cl)c(Cl)c2)s1	inconclusive: -51.2%
COc1ccccc1CNC(=O)CSC1=NCCS1	inconclusive: -47%
Cn1c(N)c(C(=O)COC(=O)c2ccc([N+](=O)[O-])o2)c(=O)n(C)c1=O	inconclusive: -46.9%
Cc1ccccc1NP(=O)(c1ccccc1)c1nc2ccccc2s1 (stereo unspecified)	inconclusive: -53.1%
O=C(/C=C/c1cccc(C(F)(F)F)c1)N1CCN(c2ccccn2)CC1	inconclusive: -51.1%
Cc1cc(C(=O)CSc2nncs2)c(C)n1-c1ccc2c(c1)OCO2	active: -153%
CSc1nsc(SCC(=O)Nc2ccc(Br)cn2)n1	inconclusive: -49.3%
CCCCN(CC)CCCNC(=S)Nc1ccc2nc(N3CCN(CC)CC3)cc(C)c2c1	inconclusive: -56.3%
COc1ccccc1OCC(=O)N/N=C/c1c(O)ccc2ccccc12	inactive: 59.6%
CC(=O)c1ccc(S(=O)(=O)N2CCN(C(=O)/C=C/c3ccc4ccccc4n3)CC2)cc1	inactive: 62.4%
O=C(NC1CC1)c1ccc(-c2nc3ccccc3s2)s1	inactive: 96.3%
CCc1sc(C(=O)Nc2ccc(F)cc2C)cc1C	inconclusive: -42.8%
O=C(Nc1cccc(NC(=O)c2ccco2)c1)c1cnccn1	inconclusive: -27%
Cc1ccc(NC(=O)Cn2c(CCC(=O)O)ccc2-c2cccs2)cc1	inconclusive: -51.4%
CON/C=C(\C=Nc1ccc(F)cc1)c1ncc(C(F)(F)F)cc1Cl	inconclusive: -60.8%
O=C(O)c1cccc(COc2ccccc2Cl)c1	inactive: 103%
CC(=O)Nc1ccc(NC(=O)CSc2ncc(C(=O)Nc3ccc(Cl)cc3)c(=O)n2C)cc1	inconclusive: -50.6%
N#Cc1cc2ccc(N3CCOCC3)cc2cc1C#N	active: -72.6%
Cc1nc2ccccc2n1-c1nc(-c2ccco2)cc(C(F)(F)F)n1	inactive: 90.4%
COc1ccc2oc(C(=O)Nc3nccs3)c(C)c2c1	inconclusive: -60%
O=C(CSc1nc2ccccc2c(=O)n1NC(=O)c1ccccc1)c1ccc(Cl)cc1	inconclusive: -59.7%
O=C(CSc1nnc(-c2cccnc2)o1)Nc1nccs1	inconclusive: -59%
Cc1nc2c(-c3ccc(Cl)cc3)c(C)[nH]n2c(=O)c1Cc1ccccc1	inactive: 77.8%

Compound	activity score
CC(/C=C/C(=O)c1ccc(C)cc1)=C\c1ccccc1	inconclusive: -60.9%
CC(=O)N1CCc2cc(S(=O)(=O)NC(C(=O)N3CCN(c4ccccc4F)CC3)C(C)C)ccc21 (stereo unspecified)	inconclusive: -50.3%
Cc1ccc(C(=O)n2c(N)nc3ccccc32)cc1	inactive: 81.1%
NC(=S)N/N=C/c1ccc(C23CC4CC(CC(C4)C2)C3)cc1	active: -310%
O=C(CN1CC(=O)Oc2ccccc21)OCC(=O)c1ccccc1	active: -100%
COc1cccc(/C(N)=N/OC(=O)Cc2ccccc2[N+](=O)[O-])c1	active: -77.1%
CCOCC(=O)Nc1ccc(C(=O)Nc2ccccc2Cl)cc1	inconclusive: -47.4%
O=C(Nc1nccs1)c1cc(-c2ccco2)nc2ccccc12	inconclusive: -30%
Cc1cccc(NC(=O)N2CCN(Cc3ccc4c(c3)OCO4)CC2)c1C	inconclusive: -34.6%
COc1cccc(NC(=O)Nc2nc(SC(C)(C)C)ns2)c1	active: -130%
COc1ccc2nc(NC(=O)c3ccc(NS(=O)(=O)c4cccs4)cc3)sc2c1	active: -66.9%
C/C(=N\NC(=O)c1sccc1C)c1ccncc1	active: -108%
Cc1ccc(-c2nc(-c3ccccc3)no2)cc1	inactive: 57.4%
CC1CCN(C(=O)c2ccccc2NC(=O)Cc2ccccc2)CC1	inconclusive: -51.6%
Cc1ccc(C(NC(=O)NN2CCN(C)CC2)C(Cl)Cl)cc1F (stereo unspecified)	inconclusive: -45.2%
COc1ccccc1C(=O)NNC(=O)c1nn(Cc2ccccc2)c(=O)c2ccccc12	inconclusive: -48.3%
COc1ccc2c(c1)CCc1cn3ncc(C#N)c3nc1-2	inactive: 68.1%
O=C(O)c1ccc2c(c1)C(=O)N(CCc1c[nH]c3ccccc13)C2=O	inconclusive: -61.1%
COc1cc(SC)ccc1C(=O)Nc1nc(C)cs1	inactive: 96.2%
NC(=O)N/N=C/c1cn(-c2ccccc2)nc1-c1cccs1	inconclusive: -58.7%
COc1ccc(C2=NCN(c3ccc(C)cc3)C(=S)N2)cc1	active: -138%
Cc1ccc(C(=O)C[n+]2ccc(Cc3ccccc3)cc2)cc1	inactive: 60.7%
Cc1occc1C(=O)Nc1cccc(Cl)c1Cl	inconclusive: -51.2%
CCOc1ccc(N(C)S(=O)(=O)c2ccc(-c3cc(C)no3)s2)cc1	inconclusive: -58.7%

Compound	activity score
CCCOc1ccc(C(=O)NNC(=S)NC(C)=O)cc1	inactive: 67.7%
COc1cccc(NC(=O)CCc2nc(-c3ccccc3F)no2)c1	inconclusive: -48.3%
CCCCc1ccc(-c2nc(N)n[nH]2)cc1	active: -99.7%
CN(C)c1ccc(-c2nc3ccccc3n2C)cc1	inactive: 60.8%
Cc1cc(C)cc(N=Cc2[nH]c3ccc(Br)c(Cl)c3c2O)c1	inconclusive: -57.2%
O=C(Nc1nccs1)c1cn2ccccc2n1	inactive: 64.7%
CN1CCN(C2Cc3ccc(Cl)cc3Sc3ccc(F)cc32)CC1 (stereo unspecified)	inactive: 104%
CC(=O)c1c(-c2ccccc2)[nH]c2ccccc12	inconclusive: -51.1%
COc1cccc(CNc2cccc3cccnc23)c1O	active: -87.7%
O=C(Nc1ccc(N2CCOCC2)cc1)c1cnccn1	inactive: 66.6%
CCNS(=O)(=O)c1ccc2nc(NC(=O)c3cccnc3)sc2c1	inconclusive: -33.4%
Cc1ccc(C(=O)/C=C2\NCC(C)NC2=O)cc1 (stereo unspecified)	inactive: 59%
O=C(O)CCCCCn1c(SCc2cc(=O)n3ccccc3n2)nc2ccsc2c1=O	inconclusive: -34%
Cc1ccc(/C=N/Nc2ccc(Cl)c(C(=O)O)c2)s1	active: -153%
Cc1ccc(NC(=O)COc2ccccc2)cc1Cl	inconclusive: -59%
CC1CCCN(S(=O)(=O)c2ccc(C(=O)Nc3nnc(-c4ccccc4Cl)o3)cc2)C1 (stereo unspecified)	inactive: 77.9%
COc1ccc(C2Nc3ccccc3C(=O)N2NC(=O)c2ccccc2)cc1OC (stereo unspecified)	inconclusive: -43.1%
CN(C)c1ccc(/C=N/NC(=O)c2ccc(Cn3cc(Br)cn3)o2)cc1	active: -69.3%
COc1ccc(OCCNc2cc(Cl)ccc2[N+](=O)[O-])cc1	inconclusive: -44.8%
CC(=O)Nc1nc2ccccc2n1Cc1ccccc1C	inactive: 66.6%
Cc1ccc2[nH]c(-c3cccc(N)c3)cc2c1	active: -209%
Cc1cccc(/C=N/NC(=O)NC23CC4CC(CC(C4)C2)C3)n1	inconclusive: -56.1%
Nc1c(C(=O)Nc2nc3ccccc3s2)sc2nc(-c3cccs3)ccc12	inactive: 106%
Cc1c(NC(=S)NC(=O)c2sc3ccccc3c2Cl)cccc1C(=O)O	inconclusive: -55.3%

Compound	activity score
O=C(NCC1CCCO1)c1ccc2c(=O)n(CCc3ccccc3)c(=O)[nH]c2c1 (stereo unspecified)	inconclusive: -24.5%
Cc1cc2nc(/C=C/c3cccnc3)[nH]c2cc1C	inactive: 92.1%
Clc1ccc(-c2csc(N3CCOCC3)n2)cc1	active: -140%
Oc1ccc(/C=N/Nc2ccnc3cc(Cl)ccc23)cc1O	active: -78.5%
COc1ccc(-c2coc3cc4oc(=O)cc(-c5ccccc5)c4cc23)cc1F	inactive: 113%
CCc1c(C)sc(NC(=O)c2cc(-c3ccco3)on2)c1C#N	inconclusive: -45.9%
Cc1ccc(C(=O)Nc2ccc3c(c2)OCCO3)c(C)c1	inactive: 73.5%
CCCNC(=O)C1CC(=O)N(c2ccc(OCc3ccc(F)cc3)cc2)C1 (stereo unspecified)	active: -92.1%
O=c1c2ccccc2oc2ncccc12	inconclusive: -51.4%
Cc1ccc(S(=O)(=O)Cc2ccc(C(=O)N3CCN(c4cccc(C)c4C)CC3)o2)cc1	inactive: 88.5%
COc1cccc(NC(=O)C(C)Oc2ccccc2)c1 (stereo unspecified)	inconclusive: -52.1%
C=CCNc1nc(N)c([N+](=O)[O-])c(Nc2ccccc2OC)n1	inactive: 61.3%
COc1ccc(/C=C/C(=O)c2ccc3c(c2)OCCO3)cc1[N+](=O)[O-]	inconclusive: -58.7%
CCCOc1ccccc1C1CC(=O)Nc2cc3c(cc21)OCO3 (stereo unspecified)	inactive: 111%
Cc1cc(NCc2ccncc2)ccc1Br	inconclusive: -50.6%
Cc1cc(NC(=O)c2ccc3c(c2)OCCO3)no1	inactive: 61.8%
C=CCn1c(-c2ccc(C)cc2)nc2ccccc21	inconclusive: -45.7%
CCCc1ccc(-c2ccc(-c3noc(-c4ccncc4)n3)cc2)nc1	inconclusive: -60.3%
COc1cccc(NC(=O)c2cnc(SC)nc2C)c1	inconclusive: -54.4%
COc1ccc2oc(=Nc3ccccc3)c(-c3nc4ccccc4[nH]3)cc2c1	inconclusive: -50.8%
O=C(Cn1c(=O)sc2ccccc21)Nc1ccc(O)cc1	inconclusive: -54%
COC(=O)c1sc2nc(-c3ccccc3)nc(N3CCN(C)CC3)c2c1C	inconclusive: -53.8%
CC1=NNC(=O)/C1=C\c1cn(-c2ccccc2)nc1-c1ccc(Cl)cc1	inactive: 98.4%
Cc1ccnc(NC(=O)c2ccc3c(c2)C(=O)N(CC(C)C)C3=O)c1	inconclusive: -44.4%
